This is one part of the list.
molecular target: T1, OsWOX13 (Oryza sativa, UniProt Q5QMM3 1-267); experiment: protein-binding microarray (RPBM); PBS, 2% BSA, 51.3 ng/ul salmon testes DNA, 50 uM zinc acetate, 200 nM TF, 25 C, 1 h; high values mean tight binding; settings: protein: recombinant; tags: N-terminal polyhistidine and DsRed monomer fusion (pET32a); label: CyDye5-dUTP incorporated in the synthesized complementary strand; 3' TTTTT single-stranded linker to array surface; dsDNA, one strand shown
T1 sequence: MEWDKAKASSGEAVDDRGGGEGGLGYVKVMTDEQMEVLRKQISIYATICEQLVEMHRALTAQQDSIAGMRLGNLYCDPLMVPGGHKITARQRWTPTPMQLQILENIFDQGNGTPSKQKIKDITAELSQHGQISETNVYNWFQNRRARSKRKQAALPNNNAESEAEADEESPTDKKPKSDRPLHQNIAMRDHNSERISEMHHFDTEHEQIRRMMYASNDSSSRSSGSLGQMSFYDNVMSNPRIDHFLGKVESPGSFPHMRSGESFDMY
Method in brief: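 Transcription factors were each fused at the N-terminus to a polyhistidine tag plus DsRed and expressed in E. coli BL21-CodonPlus before Ni–NTA purification. Binding to a double-stranded custom Agilent array was carried out with 200 nM protein at 25 °C for 1 h in PBS, 2% BSA, salmon testes DNA and 50 µM zinc acetate. The binding signal is per-feature fluorescence intensity, in arbitrary units, on an Axon 4000B scanner.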

| Sequence | binding signal |
| --- | --- |
| TAGAGATTGGATGTCCAGTTCTAACGTACGTTCAGTGTACCGGAGTCACCTAGTGCAG | 8010 fluorescence intensity (a.u.) |
| GAGTAATTAAGGACGTCCATCCTACGATCTACGGCCTTGTCGGAGTCACCTAGTGCAG | 5330 fluorescence intensity (a.u.) |
| GGTAGGGTGGGGATGGGGTGTGTGCTAGCAATCCCGGTGGCGGAGTCACCTAGTGCAG | 3190 fluorescence intensity (a.u.) |
| GTGGTAAATTGAGGGAGTCAAAGTGATCTTATTCCTTTATCGGAGTCACCTAGTGCAG | 5850 fluorescence intensity (a.u.) |
| TCTCTTCCTTGCTGTGGTGGCGGCGGGCGGGAGGGCGGCGCGGAGTCACCTAGTGCAG | 12700 fluorescence intensity (a.u.) |
| TTATACAACTGATTATCTATTGGCTCTTGTTTTAATTACTCGGAGTCACCTAGTGCAG | 8100 fluorescence intensity (a.u.) |
| TAACAACTCTGTCAATTAGGCTAGATCAATTATAGTTCATCGGAGTCACCTAGTGCAG | 12200 fluorescence intensity (a.u.) |
| TCCCTATTAGAAATCTAATCAAGCATCTCTGAATTCCATCCGGAGTCACCTAGTGCAG | 5830 fluorescence intensity (a.u.) |
| AAACTAATTGCATAAATGAGAGCTAATCCACAAGACAAATCGGAGTCACCTAGTGCAG | 33300 fluorescence intensity (a.u.) |
| GATTTCGCAATCCAATTAATACATTAAAATCCTCAACCACCGGAGTCACCTAGTGCAG | 3500 fluorescence intensity (a.u.) |
| CAATTTGATTGGTCGATACAAGTTACCGTGCCGGCTGCATCGGAGTCACCTAGTGCAG | 43700 fluorescence intensity (a.u.) |
| ACACGTACATAATTTCTTTTAAAAGAAATATCTGGAGGGACGGAGTCACCTAGTGCAG | 3850 fluorescence intensity (a.u.) |
| ACGCTAATCAGCGTGATTATCAAATACTGTACTACTAACACGGAGTCACCTAGTGCAG | 34200 fluorescence intensity (a.u.) |
| ACTGACAGGAGGCGTGGAGTTGTTGAGGTACTACTTTTATCGGAGTCACCTAGTGCAG | 3660 fluorescence intensity (a.u.) |
| ATGCCCCATTTAATTGCCTGTTGGGTGACAATTATGGAATCGGAGTCACCTAGTGCAG | 7940 fluorescence intensity (a.u.) |
| TCTTATTGATTGCAGAATCAAATCAACAGGCACGCTCACGCGGAGTCACCTAGTGCAG | 42400 fluorescence intensity (a.u.) |
| GATTTTAAATCGTTTGATTTGCTTTAAAATTTATGCAAAGCGGAGTCACCTAGTGCAG | 3560 fluorescence intensity (a.u.) |
| TGTCACCTTAATTGATGCTTCCTACCTGTTAGATCCAATGCGGAGTCACCTAGTGCAG | 35500 fluorescence intensity (a.u.) |
| CACTGCACCTGACAGACAGATCAAGGAGATAACCGGACTACGGAGTCACCTAGTGCAG | 3180 fluorescence intensity (a.u.) |
| GCCTTGATCAGACTGGAACATCGCACATGATGTGCTCATGCGGAGTCACCTAGTGCAG | 3780 fluorescence intensity (a.u.) |
| GATGAGATTGGCGCCACGGGACCGGAACCTTTCAACGGTCCGGAGTCACCTAGTGCAG | 6320 fluorescence intensity (a.u.) |

| Sequence | binding signal |
| --- | --- |
| AACTTAATTAAATTTAAAGCAGTTTGATTTTGACTAAAGTCGGAGTCACCTAGTGCAG | 31800 fluorescence intensity (a.u.) |
| TTCATTTGGTTTGGTTAATTATAAATTGGATATATACCAGCGGAGTCACCTAGTGCAG | 11400 fluorescence intensity (a.u.) |
| TTCGATAATGGAATTCAATCTAGCCTCTACGACGGGCCGGCGGAGTCACCTAGTGCAG | 13300 fluorescence intensity (a.u.) |
| ATAATCAATCTAATAGCTCATTCATTCATACAATAGTTAGCGGAGTCACCTAGTGCAG | 24200 fluorescence intensity (a.u.) |
| ATAAATTTTCGTTACCGTATTCACGCCGGTTCGTTTTCACCGGAGTCACCTAGTGCAG | 6510 fluorescence intensity (a.u.) |
| ACCTGCTTCCTTAATTAACTCCTTTCCGTCCTTTGTACTTCGGAGTCACCTAGTGCAG | 9150 fluorescence intensity (a.u.) |
| GTAAATTTGACAAGATAAGATGTGGTGGCAAGTTTTAATACGGAGTCACCTAGTGCAG | 3150 fluorescence intensity (a.u.) |
| AAATTATTAATTATTTTATTTGTGACTTACTTTATTATCTCGGAGTCACCTAGTGCAG | 10400 fluorescence intensity (a.u.) |
| TTCTGATTTTCCATAATTCCATTAACTTTTGGAATTGCGCCGGAGTCACCTAGTGCAG | 29700 fluorescence intensity (a.u.) |
| CGCTAATCACTAGTTCTACATGCTAATGCAACAGCCTTTACGGAGTCACCTAGTGCAG | 6340 fluorescence intensity (a.u.) |
| TCCGTAGGCGCCCGTGGCGCAGATCAAACTCGCACGCGCACGGAGTCACCTAGTGCAG | 49600 fluorescence intensity (a.u.) |
| TTTAATTGGATTCATAAATAGAGTTGGTGTTGTGAAAACACGGAGTCACCTAGTGCAG | 26800 fluorescence intensity (a.u.) |
| TTTGCCCTTAATTTGTATACAACTATACACTAGAAAAGAGCGGAGTCACCTAGTGCAG | 12000 fluorescence intensity (a.u.) |
| ATAATATGATTGCTTCGAATCGAACCGCTCCCCGCGTTGCCGGAGTCACCTAGTGCAG | 35400 fluorescence intensity (a.u.) |
| ATTAATTCATTAATTAGTCGGATAAGGCCTATGAACAGTTCGGAGTCACCTAGTGCAG | 17700 fluorescence intensity (a.u.) |
| CATAAATATCATAATTTGTAGCTTCAATGCATTTCTAACACGGAGTCACCTAGTGCAG | 7190 fluorescence intensity (a.u.) |
| GATGGCATCCCCGAGTGATTGAAAGAGTTTCCTCTCTCTTCGGAGTCACCTAGTGCAG | 13000 fluorescence intensity (a.u.) |
| ACAGAATTGGTGGTATATTGATAAACTCTAAAGGATGGGCCGGAGTCACCTAGTGCAG | 12400 fluorescence intensity (a.u.) |
| TGAAATTGGCCAAACAACTGAGGCATCATGTATACAAATTCGGAGTCACCTAGTGCAG | 3220 fluorescence intensity (a.u.) |
| CCTATCAATTTTATCTAACGGATTAGAAGAAAATTATCAACGGAGTCACCTAGTGCAG | 11300 fluorescence intensity (a.u.) |
| TGCTTGTAATTTCTATAAAATTAGCAGTATTTTGATGCTACGGAGTCACCTAGTGCAG | 9240 fluorescence intensity (a.u.) |

Source: publication PMC7819943, “Rice protein-binding microarrays: a tool to detect cis-acting elements near promoter regions in rice”
